According to PubChem BioAssay AID686970 (National Center for Advancing Translational Sciences (NCATS), 2013):
Values joined by “and” are separate entries in the source; they are usually repeats but may differ in a detail not shown here. Equal entries are not always repeated. Out of some 360,000 compounds screened, about 6,000 (1.7%) were called active. Inconclusive means that the source gave no clear call. Such entries were picked first, then a sample of the others. The call rests on the fitted dose curve; in most records, active means well fitted cell-killing curve with a large enough effect; inconclusive means small, poorly fitted or top-dose-only effect, or effect the other way; inactive means flat fitted curve, though single readings scatter. Potencies of inconclusive entries are doubtful fits and often do not repeat.

assay: qHTS for induction of synthetic lethality in tumor cells producing 2HG: qHTS for the HT-1080-NT fibrosarcoma cell line; conditions: HT-1080-NT fibrosarcoma viability, CellTiter-Glo ATP luminescence, 48 h; activity, negative = less viability: at 46.1 µM (top of the series) unless noted;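 further: NT is the 2HG producing partner of a matched IDH1 knockdown line; nearly all actives have a fitted effect of over 55% in size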;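 on activity, negative = less viability: 0% = DMSO-treated cells and -100% = media-only wells without cells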
How it was run: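 Viability by CellTiter-Glo luminescence after 48 h compound exposure at 37C of HT-1080-NT cells (750/well, RPMI, 5% FBS). % activity scaled between DMSO wells and medium-only wells, then curve-fitted and categorized by curve class.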
Potency means the concentration at half of the fitted maximal effect; tags describe the fitted curve by direction and shape.

Row | SMILES | Potency | activity, negative = less viability
1 | COc1cc(CNc2ccc(C)c(C)c2)cc(OC)c1OC | active: 5.01 µM | –
2 | COc1ccc(OCC(=O)N/N=C/C(C)=C/c2ccco2)c(Br)c1 | inconclusive: 23.1 µM [cytotoxic, single point] | –
3 | COc1ccc(NS(=O)(=O)c2cc(NC(=O)c3ccccn3)ccc2OC)cc1Br | – | inactive: -8.4%
4 | Cc1ccc(N(CC(=O)NCc2ccc(F)cc2)C(=O)CCC(=O)Nc2ccccn2)cc1C | inconclusive: 18.4 µM [cytotoxic, single point] | –
5 | COc1ccc(CCNC(=O)c2ccc(Cl)cc2Cl)cc1 | – | inconclusive: 30.4%
6 | O=C(CCl)N=c1sccn1Cc1cccc2ccccc12 | inconclusive: 0.0231 µM [cytotoxic, full curve, poor fit] | –
7 | CC1(C)CC(N(Cc2ccc(F)cc2)C(=O)c2ccc(F)cc2)CCO1 (configuration not stated) | – | inactive: 4.75%
8 | Oc1ccccc1C=NNC(=S)NN=Cc1ccccc1O | inconclusive: 2.31 µM [cytotoxic, partial curve, poor fit] | –
9 | O=C(c1ccncc1)N1CCN(S(=O)(=O)c2ccc(F)cc2)CC1 | inconclusive: 6.51 µM [rising, partial curve] | –
10 | CC1CCCCC1NC(=O)/C=C/c1nc2ccccc2s1 (configuration not stated) | – | inactive: -5.34%
11 | COc1ccccc1-n1c(-c2ccccc2)n[nH]c1=S | inconclusive: 0.731 µM [cytotoxic, full curve, poor fit] | –
12 | COc1ccc(CCNC(=O)c2cc(-c3ccc(C)cc3O)n[nH]2)cc1OC | inconclusive: 29.1 µM [cytotoxic, single point] | –
13 | CCCN1CCC(NC(=O)C2CCCCC2C(=O)O)CC1 (configuration not stated) | – | inactive: 16.9%
14 | COc1ccc(Sc2ccc(NC(=O)c3ccccc3Cl)cc2C#N)cc1 | inconclusive: 20.6 µM [cytotoxic, single point] | –
15 | CC1(Cc2cc(Cl)ccc2C(F)(F)F)C(=O)Nc2cc(F)ccc21 (configuration not stated) | inconclusive: 29.1 µM [cytotoxic, single point] | –
16 | COc1ccc(C)cc1NCC(=O)Nc1ccc(C(C)(C)C)cc1 | – | inactive: -17.2%
17 | N#Cc1cc2c(nc1SCc1ccncc1)CCC2 | inconclusive: 35.5 µM [cytotoxic, single point] | –
18 | O=C(NCc1cccnc1)c1cccc(OC2CCN(Cc3ccc(CO)o3)CC2)c1 | – | inactive: -1.33%
19 | Cc1[nH]c2ccccc2c1C(=O)C(C)OC(=O)c1ccc([N+](=O)[O-])o1 (configuration not stated) | inconclusive: 32.6 µM [cytotoxic, single point] | –
20 | O=C1C2C3C=CC(CO)(O3)C2C(=O)N1c1ccccc1-c1ccccc1 (configuration not stated) | active: 3.16 µM | –
21 | C[C@H](CO)N1C[C@H](C)[C@H](CN(C)C(=O)c2ccccc2F)Oc2ncc(Br)cc2C1=O | – | inactive: -4.05%
22 | O=C(Nc1ccccc1Cl)N1CCCN(c2nc(-c3ccccc3)ns2)CC1 | inconclusive: 20.6 µM [cytotoxic, single point] | –
23 | COc1ccc(-c2cc(C(=O)Nc3cc(OC)cc(C(=O)Nc4cccc(C(F)(F)F)c4)c3)[nH]n2)cc1 | inconclusive: 9.2 µM [cytotoxic, single point] and inconclusive: 25.9 µM [cytotoxic, partial curve] | –
24 | Cc1ccc(S(=O)(=O)c2cn(C)c3cc(N4CCN(C)CC4)c(F)cc3c2=O)c(C)c1 | active: 20.6 µM | –

Row | SMILES | Potency | activity, negative = less viability
25 | COc1ccc(NC(=O)Nc2nc(C)cc(C)n2)c(OC)c1 | – | inactive: -2.06%
26 | CCOC(=O)c1nc(NNC(=O)c2ccc([N+](=O)[O-])cc2)sc1C | inconclusive: 9.2 µM [cytotoxic, partial curve] | –
27 | O=C(Nc1ncc(Cc2ccc(SC(F)F)cc2)s1)c1ccccc1 | active: 4.61 µM | –
28 | Cc1cc(Nc2nc3ccccc3nc2Cl)n(-c2ccccc2)n1 | inconclusive: 3.55 µM [cytotoxic, single point] | –
29 | O=c1[nH]c(C2CCN(S(=O)(=O)c3ccc4c(c3)OCCO4)CC2)nc2c1nnn2Cc1cccc(F)c1 | – | inactive: -8.78%
30 | Cc1noc(C)c1COc1ccc(C(=O)NNC(=O)c2ccccc2O)cc1 | inconclusive: 18.4 µM [cytotoxic, single point] | –
31 | O=C(NNC(=O)C1CCC1)c1ccc(F)cc1 | – | inactive: 3%
32 | CCC(NC(=S)NCc1ccc(F)cc1)c1ccc(C(C)C)cc1 (configuration not stated) | inconclusive: 29.1 µM [cytotoxic, single point] | –
33 | COc1ccc(C2(O)CCN(CC(=O)Nc3nc(-c4ccccc4)cs3)CC2)cc1 | inconclusive: 29.1 µM [cytotoxic, single point] | –
34 | Cc1nn(-c2ccccc2)c(C)c1/C=N/NC(=O)c1cc(-c2cccc3ccccc23)n[nH]1 | inconclusive: 20.6 µM [cytotoxic, partial curve] | –
35 | Cc1ccc(-c2nnc(N(C)C(=O)c3ccccn3)s2)cn1 | inconclusive: 2.91 µM [rising, partial curve] | –
36 | Oc1ccccc1N=Cc1c(O)ccc2ccccc12 | inconclusive: 0.651 µM [cytotoxic, partial curve] | –
37 | O=C(c1ccco1)N1CCN(S(=O)(=O)/C=C/c2ccccc2)CC1 | – | inactive: -3.96%
38 | CN(Cc1ccc(Cl)cc1)C(=O)CCl | inconclusive: 20.6 µM [cytotoxic, single point] | –
39 | CCOc1ccc(N=Nc2c(=O)[nH]n3c(=O)cc(C)[nH]c23)cc1 | inconclusive: 23.1 µM [cytotoxic, single point] | –
40 | Cc1ccc2c(c1)C(=O)C(=O)N2CCCOc1ccccc1C | inconclusive: 29.1 µM [cytotoxic, single point] | –
41 | CCOC1=C2[C@H](c3ccc(CC)cc3)N(S(=O)(=O)c3ccc(C)cc3)C[C@H]2n2c(=O)n(-c3ccccc3)c(=O)n2C1 | – | inactive: 10.1%
42 | COc1ccc(-c2coc3c(C(=O)NCc4ccc(F)c(F)c4)cccc23)c(C)c1 | active: 13 µM | –
43 | CC(=O)c1ccc(N2CCN(S(=O)(=O)c3ccc(-c4cnc(C5CC5)o4)cc3)CC2)cc1 | active: 14.6 µM | –
44 | COCc1nnc(NC(=O)COc2ccc3c(c2)OCO3)s1 | inconclusive: 4.11 µM [cytotoxic, full curve, poor fit] | –
45 | COC(=O)c1ccc(OCC(O)CN2CCc3cc(OC)c(OC)cc3C2c2ccccc2)cc1 (configuration not stated) | inconclusive: 18.4 µM [cytotoxic, single point] | –
46 | O=c1[nH]c(CCl)nc2cc(-c3ccc(F)cc3)sc12 | active: 14.6 µM | –
47 | O=S1(=O)CC(N2CCSCC2)CN1Cc1cn(Cc2ccccc2)nn1 (configuration not stated) | – | inactive: 16.2%
48 | Cn1c(N)c(C(=O)COC(=O)c2ccc(Br)o2)c(=O)n(C)c1=O | – | inactive: 5.61%

Row | SMILES | Potency | activity, negative = less viability
49 | COc1cccc(OCCn2cc(C(C)=O)c3ccccc32)c1 | inconclusive: 8.2 µM [cytotoxic, partial curve] | –
50 | CCCc1nc2c3ccccc3ccn2c1Cc1ccccc1 | inconclusive: 20.6 µM [cytotoxic, single point] | –
51 | COc1ccc(CNC(=O)C(OC(=O)c2ccco2)c2ccc(F)cc2)cc1 (configuration not stated) | – | inactive: 10.8%
52 | Cc1ccc(S(=O)(=O)NCCOc2nc(N(C)C)nc(N(C)C)n2)cc1 | – | inactive: -0.435%
53 | COc1ccc(C(=O)c2ccc(N(C)C)cc2)c2ccccc12 | active: 1.58 µM | –
54 | Cc1ccc(OC(F)F)c(NC(=O)Nc2cccc(C(F)(F)F)c2)c1 | inconclusive: 35.5 µM [cytotoxic, single point] | –
55 | COc1cc2c(cc1OC)C(C)N(S(=O)(=O)c1cnc(Cl)c(Cl)c1)CC2 (configuration not stated) | inconclusive: 14.6 µM [cytotoxic, partial curve] | –
56 | N#CC1(C#N)CC(C=O)=C(N)C1(C#N)CC(=O)C12CC3CC(CC(C3)C1)C2 (configuration not stated) | inconclusive: 16.4 µM [cytotoxic, single point] | –
57 | Fc1cccc2sc(Nc3nnc(-c4ccccc4)o3)nc12 | inconclusive: 23.1 µM [cytotoxic, single point] | –
58 | Oc1ccc(C2=Nn3c(nnc3-c3ccco3)SC2)cc1O | inconclusive: 2.06 µM [cytotoxic, full curve] | –
59 | Cc1ccc(OCC(O)CN2CCN(c3ccccn3)CC2)c(C)c1 (configuration not stated) | – | inactive: -5.18%
60 | Cc1ccc(S(=O)(=O)N2CCCCC2)cc1NC(=O)c1nn(C)c(=O)c2ccccc12 | – | inactive: 6.66%
61 | CCCN1CCC(=NNc2ccc(S(=O)(=O)N(CC)CC)cc2[N+](=O)[O-])CC1 | active: 8.2 µM | –
62 | COc1ccc(/C=C2\CCCC3C2=NN(C(=O)CSc2ncn[nH]2)C3c2ccc(OC)cc2)cc1 (configuration not stated) | inconclusive: 29.1 µM [cytotoxic, single point] | –
63 | CCCNC(=O)c1ccc(COc2ccc(C(C)(C)C)cc2)o1 | inconclusive: 16.4 µM [cytotoxic, single point] | –
64 | O=C(O)c1ccc(N/N=C/c2c[nH]c3ccccc23)cc1 | – | inactive: -7.93%
65 | CCc1ccccc1NC(=O)c1noc(C(C)C)c1[N+](=O)[O-] | inconclusive: 20.6 µM [cytotoxic, single point] | –
66 | CC(=O)c1cn(CCOc2ccccc2C)c2ccccc12 | inconclusive: 6.51 µM [cytotoxic, partial curve, poor fit] | –
67 | CC(C)CNC(=S)N1CCN(c2nc3ccccc3s2)CC1 | inconclusive: 29.1 µM [cytotoxic, single point] | –
68 | Cc1nc(SCC(=O)NCc2ccco2)[nH]c(=O)c1C | inconclusive: 10 µM [cytotoxic, partial curve] | –
69 | CCCCOc1ncnc2c1[nH]c1ccc(OCC)cc12 | – | inconclusive: 32.1%
70 | CC1CC(=O)c2c(cc3c(-c4c(O)cc(O)c5c(O)c6c(cc45)OC(C)CC6=O)c(O)cc(O)c3c2O)O1 (configuration not stated) | active: 4.61 µM | –
71 | CCOc1cc(/C=N/NC(=O)N/N=C/c2ccc(O)c(OCC)c2)ccc1O | active: 1.84 µM | –
72 | S=C1NC2=C(CCC/C2=C\c2ccc(Cl)cc2)C(c2ccc(Cl)cc2)N1 (configuration not stated) | inconclusive: 23.1 µM [cytotoxic, single point] | –
